# Results as given in paper PMC4782136 (Scientific Reports, 2016).
# Tested on: influenza A/Puerto Rico/8/34 (H1N1)
# Experiment: microbe, parasite or virus in culture
# Details: H1N1, read-out: IC50 ± SD, H1N1
smiles,measurement,value
"NC(=O)c1ncn([C@@H]2O[C@H](CO)[C@@H](O)[C@H]2O)n1 [Ribavirin, ribavirin]",IC50,12.85 ± 0.08 µM
